# From PubChem BioAssay AID1460 (National Center for Advancing Translational Sciences (NCATS), 2008)
# Out of some 270,000 compounds screened, about 5,800 (2.1%) were called active. Inconclusive means that the source gave no clear call. Such entries were picked first, then a sample of the others. Calls come from the whole dose curve; as a rule, active = well fitted inhibition curve with a large enough effect; inconclusive = small, poorly fitted or top-dose-only effect; inactive = flat fitted curve, though single readings scatter. Potencies of inconclusive entries are doubtful fits and often do not repeat.
# Biological target: Microtubule-associated protein tau (Homo sapiens) (UniProt P10636)
# Sequence of UniProt P10636 (P10636 whole entry, looked up): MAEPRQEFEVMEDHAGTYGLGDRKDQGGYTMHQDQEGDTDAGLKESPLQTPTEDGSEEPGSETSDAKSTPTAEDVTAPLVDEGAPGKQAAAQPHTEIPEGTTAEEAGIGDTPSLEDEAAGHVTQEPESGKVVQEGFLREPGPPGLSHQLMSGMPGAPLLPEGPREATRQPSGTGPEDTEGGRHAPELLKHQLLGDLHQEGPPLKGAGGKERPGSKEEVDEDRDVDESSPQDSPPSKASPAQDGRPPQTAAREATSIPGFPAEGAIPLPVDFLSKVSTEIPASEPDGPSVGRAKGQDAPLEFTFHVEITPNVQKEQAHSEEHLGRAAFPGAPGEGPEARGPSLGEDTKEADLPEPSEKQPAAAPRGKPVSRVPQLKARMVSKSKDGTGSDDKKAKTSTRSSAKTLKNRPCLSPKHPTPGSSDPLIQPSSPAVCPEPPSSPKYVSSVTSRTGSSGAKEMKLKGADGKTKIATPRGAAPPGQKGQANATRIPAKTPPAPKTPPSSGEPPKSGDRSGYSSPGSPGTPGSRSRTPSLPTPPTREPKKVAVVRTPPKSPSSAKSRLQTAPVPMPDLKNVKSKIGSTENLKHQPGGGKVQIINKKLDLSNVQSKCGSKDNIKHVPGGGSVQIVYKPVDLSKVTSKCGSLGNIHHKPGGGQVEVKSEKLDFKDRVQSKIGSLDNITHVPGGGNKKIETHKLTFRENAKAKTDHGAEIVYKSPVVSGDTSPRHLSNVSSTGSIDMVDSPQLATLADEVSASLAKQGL
# Assay: qHTS for Inhibitors of Tau Fibril Formation, Thioflavin T Binding; note: nearly all actives have a fitted effect of over 55% in size
# Conditions: recombinant tau K18 P301L, heparin-induced fibrillization, ThT fluorescence; series mostly up to 57.4 µM
# In short: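 Using a mix of unlabeled (15 uM) and Alexa 594-labeled (0.24 uM) tau K18 P301L, heparin-triggered fibrillization over 6 hr at 37 C was scored by ThT fluorescence.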
# % is set by controls: 0 for no effect and ±100 for the full control effect; potency is the fitted concentration of half-maximal effect; tags give direction and shape of the fitted curve.
Compound,Potency,"activity, negative = inhibition"
CCOC1=NN(c2ccc(Cl)cc2)C(=O)/C1=C\N(C)C,inactive,–
O=C1Nc2ccccc2C12Nc1ccccc1S2 (centres undefined),"inconclusive: 15.8 µM [inhibitor, partial curve]",–
S=c1[nH]nc2nnc3ccccc3n12,"inconclusive: 25.1 µM [inhibitor, single point]",–
O=C(CSc1nnc(-c2ccccc2)o1)c1nnc(-c2ccccc2)o1,active: 15.8 µM,–
CN(C)/C=C/C(=O)c1cnc(-c2ccccc2Cl)s1,"inconclusive: 12.6 µM [inhibitor, partial curve]",–
C=CCOc1ccc(C(=O)Nc2ccc(OCC)cc2)cc1,"inconclusive: 3.55 µM [inhibitor, full curve, poor fit]",–
O=C(CCCn1c(=S)[nH]c2cc3c(cc2c1=O)OCO3)N1CCN(c2ccc(F)cc2)CC1,"inconclusive: 0.708 µM [inhibitor, full curve]",–
CCn1cc(C(=O)N2CCN(c3ccccc3)CC2)c(=O)c2cc(S(=O)(=O)N3CCCC3)ccc21,inactive,–
O=C(Nn1c(-c2ccc(Br)cc2)nc2ccccc2c1=O)c1ccncc1,inactive,–
Nc1nonc1-c1nc2ccccc2n1CC(=O)N/N=C/c1ccc(-c2cccc(C(=O)O)c2)o1,"inconclusive: 17.8 µM [inhibitor, partial curve]",–
Cc1ccc(C(=O)N2CCN(c3ccc(F)cc3)CC2)cc1NC(=O)c1nsc2ccccc12,"inconclusive: 11.2 µM [inhibitor, partial curve, poor fit]",–
Nn1c(Cc2cccc3ccccc23)nnc1SCc1ccc(Cl)c(Cl)c1,inactive,–
O=C(Nc1ccc([N+](=O)[O-])cc1)Nc1nc(-c2ccc(Cl)s2)cs1,inactive,–
CCOc1cc(C=O)ccc1OCC(N)=O,inactive,–
CC1CC2C3CCC4=CC(=O)C=C[C@@]4(C)[C@]3(F)C(O)C[C@]2(C)[C@]1(O)C(=O)COP(=O)(O)O (some centres undefined),"inconclusive: 39.8 µM [inhibitor, single point]",–
COc1ccc(S(=O)(=O)N2CCCN(CC(=O)C(C)(C)C)CC2)cc1,inactive,–
CCC(=O)N1CCc2cc(CNC(=O)Nc3cc(C)ccc3C)ccc21,"inconclusive: 10 µM [inhibitor, partial curve]",–
O=C(c1cc2sccc2n1Cc1ccccc1)N1CCN(c2nc3ccccc3s2)CC1,"inconclusive: 15.8 µM [inhibitor, partial curve]",–
CCOC(=O)c1c(C)oc2c1c(C=NCCC(=O)O)c(O)c1ccccc12,inactive,–
CCNC(=O)C1CCCN(c2nnc(C)c3c(C)n(-c4ccc(C)cc4)nc23)C1 (centres undefined),"inconclusive: 5.01 µM [activator, partial curve, poor fit]",–
CCOC(=O)c1[nH]c(C)c(CCC(=O)NCc2cccc(C)c2)c1C,inactive,–
c1cc(Nc2cccc3nccnc23)c2nccnc2c1,active: 5.01 µM,–
COC(=O)c1ccccc1NC(=O)C1(c2cccs2)CCOCC1,inactive,–

Compound,Potency,"activity, negative = inhibition"
Cc1[nH]c2ccccc2c1/C=N/NC(=O)CNC(=O)c1ccc2c(c1)OCO2,"inconclusive: 10 µM [inhibitor, partial curve]",–
Cn1c(NCCCO)nc2c(c1=O)C1(CCCCC1)Cc1ccccc1-2,"inconclusive: 35.5 µM [inhibitor, partial curve]",–
Cc1c(Cl)cccc1NC(=O)CSc1ncc(S(=O)(=O)c2ccc(C(C)C)cc2)c(=O)[nH]1,inactive,–
CC(C)=CCC/C(C)=C/CO/N=C1/C[C@@H](O)[C@@H](O)[C@@H]2[C@@H]3C(=O)N([C@@H](C)c4ccccc4)C(=O)[C@H]3CC[C@@H]12,–,inactive: -11.9% [at 11.5 µM]
COc1ccc(NC(=S)Nc2ccc3nc(C)c(C)nc3c2)cc1,"inconclusive: 20 µM [inhibitor, partial curve, poor fit]",–
Cc1cc(C)cc(NC(=O)c2ccc3c(O)c(S(=O)(=O)c4ccccc4)c(=O)[nH]c3c2)c1,inactive,–
CCN(CC)c1ccc(NC(=O)CN2CCN(CC(=O)Nc3ccccc3F)CC2)cc1,"inconclusive: 44.7 µM [inhibitor, single point]",–
O=C(Nc1ccc(SC(F)F)cc1)C1=COCCO1,"inconclusive: 17.8 µM [inhibitor, partial curve]",–
Cn1cccc1CC(=O)N/N=C/C=C/c1ccccc1,"inconclusive: 17.8 µM [inhibitor, single point]",–
COc1cccc(/C=N/NC(=O)C[n+]2ccccc2)c1O,"inconclusive: 20 µM [inhibitor, single point]",–
Cc1ccc2nc(N3C(=O)C(O)=C(C(=O)c4ccc(C)o4)C3c3cccc(O)c3)sc2c1 (centres undefined),"inconclusive: 14.1 µM [inhibitor, partial curve]",–
CC(=O)N1CCN(c2nc3c(C)ccc(Cl)c3s2)CC1,"inconclusive: 11.2 µM [inhibitor, partial curve]",–
Cn1c(N)c(C(=O)COC(=O)c2cc(C(F)(F)F)nc3ccccc23)c(=O)n(Cc2ccccc2)c1=O,"inconclusive: 39.8 µM [inhibitor, single point]",–
CCCn1c(C)nc2c(N3CCCN(Cc4ccccc4)CC3)nc(C)nc21,inactive,–
COc1ccccc1-c1noc(-c2ccccc2C(=O)Nc2cccnc2)n1,inactive,–
CCOC(=O)C1=NN(c2ccc(Cl)cc2)/C(=C/C2=NCCc3cc(OC)c(OC)cc32)S1,"inconclusive: 31.6 µM [inhibitor, partial curve, poor fit]",–
O=C1C=C(c2ccccc2)C(=O)N1Nc1ccccc1,"inconclusive: 10 µM [inhibitor, partial curve]",–
Cc1ccc(C(=O)Nc2ccc(OCc3ccccc3)cc2)cc1[N+](=O)[O-],"inconclusive: 2.82 µM [inhibitor, partial curve]",–
CCOC(=O)c1c(/N=C/c2ccc(O)cc2O)sc2c1CCC2,"inconclusive: 20 µM [inhibitor, partial curve]",–
Nc1ccc(/C=C/c2ccc3ncccc3c2)cc1,active: 6.31 µM,–
CC(=O)Nc1ccc(C(=O)CSc2nnc(Cc3ccccc3)o2)cc1,"inconclusive: 31.6 µM [activator, partial curve]",–
COc1cc2c(C#N)c(N3CCCCC3)nc(N)c2c(N)n1,"inconclusive: 22.4 µM [inhibitor, partial curve]",–
O=C(O)c1ccc2c(c1)CCCN2,"inconclusive: 7.94 µM [activator, single point]",–

Compound,Potency,"activity, negative = inhibition"
CCC(=O)Nc1nnc(SCC(=O)N2c3ccccc3CC2C)s1 (centres undefined),inactive,–
NNC(=O)c1ccc(Oc2cc(Cl)cc(Cl)c2)o1,"inconclusive: 35.5 µM [inhibitor, single point]",–
COc1ccc(C2c3c(oc4ccc(Cl)cc4c3=O)C(=O)N2CCCN(C)C)cc1OC (centres undefined),inactive,–
CCOc1ccc(S(=O)(=O)N(C(=O)c2ccco2)c2cc3sc(=O)oc3c3ccccc23)cc1,active: 14.1 µM,–
O=C(O)c1ccc(N/N=C/c2cc3c(cc2[N+](=O)[O-])OCO3)cc1,active: 14.1 µM,–
O=C(CNC(=O)c1ccco1)OCC(=O)c1ccc2c(c1)CCCC2,"inconclusive: 17.8 µM [inhibitor, partial curve]",–
CC(=O)C(/C=N/c1cc(-c2ccc(C)cc2)nn1-c1ccccc1)=C(\C)O,inactive,–
CN(C)c1ccc(NC2=C([N+](=O)[O-])CS(=O)(=O)C2)cc1,"inconclusive: 12.6 µM [inhibitor, partial curve]",–
CCCOc1ccc(C2=NNC(=O)CC2)cc1,"inconclusive: 14.1 µM [inhibitor, partial curve, poor fit]",–
CCOc1ccccc1Nc1nc(-c2ccc(C)cc2)c(CC(=O)O)s1,"inconclusive: 7.08 µM [inhibitor, partial curve]",–
COc1ccc(CCN=c2c([N+](=O)[O-])nn(-c3cccc(C)c3)n2O)cc1OC,"inconclusive: 25.1 µM [inhibitor, partial curve, poor fit]",–
O=c1[nH]c2ccc(NCc3ccc(-c4ccc(Cl)cc4)o3)cc2[nH]1,inactive,–
Cc1ccc(N(CC(=O)Nc2cccc(F)c2)S(=O)(=O)c2cccs2)cc1,"inconclusive: 22.4 µM [activator, single point]",–
COc1ccc(NC(=O)CSc2nncn3c2cc2oc(C)cc23)cc1OC,"inconclusive: 0.631 µM [inhibitor, full curve]",–
COc1ccc(OC)c(NS(=O)(=O)c2ccc3c(c2)CCC(=O)N3)c1,inactive,–
COC(=O)/C(=C\c1ccc(O)cc1)c1nc2ccccc2[nH]1,"inconclusive: 15.8 µM [inhibitor, partial curve]",–
COc1cccc(-c2csc(N3CCN(C(=O)Nc4ccccc4OC)CC3)n2)c1,"inconclusive: 17.8 µM [inhibitor, partial curve]",–
COc1cc2c(cc1OC)C(COc1ccc3c(C)cc(=O)oc3c1)N(C(=O)c1cccc(C)c1)CC2 (centres undefined),inactive,–
COc1ccc(Cn2ccn(Cc3cccc(C)c3)c(=O)c2=O)cc1,"inconclusive: 10 µM [inhibitor, partial curve]",–
O=C(Nc1cccc(C(=O)OCc2cc(=O)n3nc(C4CC4)sc3n2)c1)c1cccc(F)c1,"inconclusive: 0.631 µM [inhibitor, full curve]",–
CCCc1cc(Nc2c(C)n(C)n(-c3ccccc3)c2=O)n2c(nc3ccccc32)c1C#N,"inconclusive: 35.5 µM [inhibitor, single point]",–
O=C(Cc1cccs1)N1CCN=C1SCc1ccc(F)cc1,"inconclusive: 2 µM [inhibitor, partial curve, poor fit]",–
O=C(/C=C/c1cccc([N+](=O)[O-])c1)Nc1ccc(NC(=O)c2cccs2)cc1,"inconclusive: 3.16 µM [inhibitor, partial curve]",–
